Experimental data reported in PubChem BioAssay AID504332 (National Center for Advancing Translational Sciences (NCATS), 2011).
In all, about 350,000 compounds went through this assay and about 31,000 (8.9%) were called active. Inconclusive results, whose numbers are uncertain, are shown with a selection of clear calls. Calls come from the whole dose curve; as a rule, active = well fitted inhibition curve with a large enough effect; inconclusive = small, poorly fitted or top-dose-only effect; inactive = no such curve, though single readings can be large or run the other way. Potencies of inconclusive entries are doubtful fits and often do not repeat.

Target: Histone-lysine N-methyltransferase EHMT2 (Homo sapiens) (UniProt Q96KQ7)
Sequence of UniProt Q96KQ7 (Q96KQ7 whole entry, looked up): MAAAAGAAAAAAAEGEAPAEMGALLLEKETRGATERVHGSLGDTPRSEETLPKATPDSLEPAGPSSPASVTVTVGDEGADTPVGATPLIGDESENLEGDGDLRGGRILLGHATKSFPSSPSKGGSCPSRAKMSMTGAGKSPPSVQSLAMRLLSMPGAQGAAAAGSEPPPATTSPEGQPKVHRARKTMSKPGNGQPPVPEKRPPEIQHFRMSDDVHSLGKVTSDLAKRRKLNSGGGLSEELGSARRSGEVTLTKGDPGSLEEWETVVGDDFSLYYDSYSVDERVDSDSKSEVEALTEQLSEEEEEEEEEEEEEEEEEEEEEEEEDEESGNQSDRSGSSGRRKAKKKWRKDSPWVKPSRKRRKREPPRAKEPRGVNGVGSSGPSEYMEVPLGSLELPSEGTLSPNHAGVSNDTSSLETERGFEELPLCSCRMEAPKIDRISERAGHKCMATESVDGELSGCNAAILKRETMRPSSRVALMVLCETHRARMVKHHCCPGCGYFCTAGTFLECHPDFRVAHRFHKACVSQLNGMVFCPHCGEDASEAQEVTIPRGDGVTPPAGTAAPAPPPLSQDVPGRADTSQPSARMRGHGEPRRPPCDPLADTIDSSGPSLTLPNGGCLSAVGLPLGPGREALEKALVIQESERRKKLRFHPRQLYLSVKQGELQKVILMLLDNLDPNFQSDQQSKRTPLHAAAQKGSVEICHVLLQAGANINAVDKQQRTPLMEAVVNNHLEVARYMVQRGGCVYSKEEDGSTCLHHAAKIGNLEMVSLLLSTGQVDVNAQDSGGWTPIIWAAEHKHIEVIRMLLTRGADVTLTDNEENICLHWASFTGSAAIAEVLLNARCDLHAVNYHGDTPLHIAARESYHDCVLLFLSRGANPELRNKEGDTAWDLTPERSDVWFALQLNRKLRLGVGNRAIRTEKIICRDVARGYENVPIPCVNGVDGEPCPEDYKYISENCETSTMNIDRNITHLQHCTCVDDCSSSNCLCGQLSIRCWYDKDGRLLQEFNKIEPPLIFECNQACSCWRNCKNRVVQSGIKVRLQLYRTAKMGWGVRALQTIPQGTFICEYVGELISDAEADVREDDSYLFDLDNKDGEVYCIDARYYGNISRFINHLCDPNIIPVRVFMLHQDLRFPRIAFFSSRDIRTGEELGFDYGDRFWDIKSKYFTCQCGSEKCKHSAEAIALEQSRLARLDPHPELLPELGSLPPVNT
Assay: qHTS Assay for Inhibitors of Histone Lysine Methyltransferase G9a; note: nearly all actives have a fitted effect of over 75% in size
Details: G9a H3K9 monomethylation, AlphaScreen, 2 h; activity, negative = inhibition: at 59 µM (top of the series) unless noted
Method in brief: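 G9a (20 nM) preincubated 15 min RT with compounds, then 500 nM biotinylated H3K9 peptide and 20 uM SAM added; 2 h RT reaction. Monomethyl-H3K9 product detected by AlphaScreen with anti-H3K9me1 antibody, streptavidin donor and anti-rabbit IgG acceptor beads.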
% is set by controls: 0 for no effect and ±100 for the full control effect; potency is the fitted concentration of half-maximal effect; tags give direction and shape of the fitted curve.

Structure (SMILES) | activity, negative = inhibition | Potency
Cc1ccc(NC(=O)Cn2c(=O)n(-c3ccccc3)c(=O)c3c4c(sc32)CCCC4)cc1 | inactive: -2.86% | –
O=C(c1ccco1)N(Cc1cccs1)C1CCS(=O)(=O)C1 (stereo not drawn) | inactive: -33.3% [at 12.7 µM] | –
COc1ccc(-c2cc(C#N)nc(N3CCN(C)CC3)n2)cc1 | – | inconclusive: 89.1 µM [inhibitor, single point]
Cc1ccc(S(=O)(=O)N2C(=O)c3cccc4cccc2c34)cc1 | – | inconclusive: 89.1 µM [inhibitor, single point]
COc1ccc(CN2C(=O)c3cccnc3C2=O)cc1S(=O)(=O)N(C)c1cccc(C)c1 | inactive: 21.3% [at 102 µM] | –
CCOc1ccc(NCc2cccn2-c2nnc(N3CCC(C(=O)NCCCN4CCCCC4)CC3)s2)cc1 | – | active: 39.8 µM
CCCCNC(=O)CC1N=C2c3ccccc3N=C(SCC(=O)Nc3cccc(OC)c3)N2C1=O (stereo not drawn) | – | inconclusive: 44.7 µM [inhibitor, partial curve, poor fit]
COc1ccc(C(=O)C(/C=N/O)=N/Nc2ccc(F)cc2)cc1 | – | active: 17.8 µM
COC(=O)c1c(NC(=O)c2ccccc2F)sc(C(=O)N2CCOCC2)c1C | inactive: 14.2% [at 102 µM] | –
Cc1cccc(C2c3[nH]c4ccccc4c3CCN2C(=O)Cc2n[nH]c(C)n2)n1 (stereo not drawn) | inactive: -19.8% [at 102 µM] | –
CC(C)[C@H](NC(=O)NCc1ccc(F)cc1)C(=O)O | – | inconclusive: 50.1 µM [inhibitor, partial curve, poor fit]
CCOc1ccc(NC(=O)c2c(NC(=O)Cc3ccccc3)sc3c2CCC(C)C3)cc1 (stereo not drawn) | – | active: 2 µM
Cc1ccc(/C=N/NC(=O)c2cccc3ccccc23)o1 | – | inconclusive: 89.1 µM [inhibitor, single point]
COc1ccc(NC(=O)Cn2c(CCC(=O)O)ccc2-c2ccc(C)cc2)cc1 | – | inconclusive: 56.2 µM [inhibitor, partial curve]
Brc1ccc(-c2csc(-c3ccncc3)n2)cc1 | inactive: 3.89% | –
COC(=O)c1ccc(C(=O)OC)c(NC(=S)N2CCCCC2C)c1 (stereo not drawn) | – | inconclusive: 50.1 µM [inhibitor, partial curve, poor fit]
O=C(CSc1nnc(-c2cc3ccccc3cc2O)n1Cc1ccco1)c1ccc(F)cc1 | inconclusive: -53.7% [inhibitor] [at 102 µM] | –
O=c1c2ccccc2c(C=NCCCN2CCOCC2)c(O)n1Cc1ccc2c(c1)OCO2 | – | active: 50.1 µM
CCOc1ccc(NC(=O)c2c(NCc3ccc(C)o3)sc3c2CCC(C)C3)cc1 (stereo not drawn) | – | inconclusive: 11.2 µM [inhibitor, partial curve, poor fit]
COCCCNC(=O)C1CCN(Cc2nc(-c3ccc(OC)c(OC)c3)oc2C)CC1 | inactive: -2.87% | –
CCCC(=NCc1ccccc1)C1=C(O)C(C(=O)OC)C(C)(C)CC1=O (stereo not drawn) | – | inconclusive: 100 µM [inhibitor, single point]
CC(C)Cc1oc(C(=O)O)cc1CN1CCOCC1 | – | inconclusive: 70.8 µM [inhibitor, single point]
CC(=O)NS(=O)(=O)c1ccc(NC(=S)NC(=O)C2CCC2)cc1 | – | inconclusive: 89.1 µM [inhibitor, single point]

Structure (SMILES) | activity, negative = inhibition | Potency
COc1ccc(OC)c(CCNC(=O)c2c(C)nn(-c3ccc(F)cc3)c2-n2cccc2)c1 | – | inconclusive: 3.16 µM [inhibitor, full curve, poor fit]
COc1ccc(Cn2nnc(C(=O)Nc3cc(OC)ccc3OC)c2N)cc1 | inactive: 6.21% | –
CCN(CC)c1ccc2cc(NC(=O)CCC(=O)O)c(=O)oc2c1 | – | inconclusive: 3.55 µM [inhibitor, single point]
COc1ccc(C2CC(c3ccc(F)cc3)Nc3nc(N)nn32)cc1OC (stereo not drawn) | – | inconclusive: 50.1 µM [inhibitor, partial curve, poor fit]
CC1(C)CC(C(CCN(Cc2ccccc2)C(=O)c2ccco2)c2ccc(F)cc2)CCO1 (stereo not drawn) | – | inconclusive: 39.8 µM [inhibitor, single point]
CC1CCN(C(=O)C2CCN(CCCc3ccccc3)CC2)CC1 | – | active: 14.1 µM
COc1cc(OC)cc(C(=O)Nc2cc(-c3nc4cc(Cl)ccc4o3)ccc2Cl)c1 | inactive: -4.51% | –
CO/N=C(/C(=O)N[C@@H]1C(=O)N2C(C(=O)O)=C(CSc3nc(C)c(CC(=O)O)s3)CS[C@H]12)c1csc(N)n1 | – | inconclusive: 3.55 µM [inhibitor, single point]
Fc1ccccc1/C=N/Nc1nn[nH]n1 | – | active: 20 µM
O=C(c1ccccc1)C(CCC(CN1CCOCC1)C(=O)c1ccccc1)CN1CCOCC1 (stereo not drawn) | – | inconclusive: 17.8 µM [inhibitor, single point]
COc1cc(OC)cc(-n2nnnc2SCC(=O)N2CCCc3ccccc32)c1 | – | inconclusive: 63.1 µM [inhibitor, partial curve, poor fit]
CCc1cc2c(NCCN3CCCCC3)ncnc2s1 | – | active: 50.1 µM
O=C1CC(=C(c2ccccc2)c2ccccc2)C(=O)N1CCCCN1CCN(c2cccc(Cl)c2)CC1 | – | inconclusive: 79.4 µM [inhibitor, partial curve, poor fit]
COc1ccc2c(Sc3ccccc3)c(C(=O)NCCc3ccc(Cl)cc3)[nH]c2c1 | – | inconclusive: 39.8 µM [inhibitor, single point]
O=C(CN1C(=O)COc2ccc(S(=O)(=O)N3CCCC3)cc21)N1CCN(c2ccccc2)CC1 | inactive: 4.78% | –
CSCCC(/C(O)=C(\C#N)c1nc2ccccc2[nH]1)N1C(=O)c2ccccc2C1=O (stereo not drawn) | – | inconclusive: 39.8 µM [inhibitor, partial curve]
Brc1ccc(-c2nn3c(Cc4ccccc4)nnc3s2)o1 | – | inconclusive: 79.4 µM [inhibitor, partial curve, poor fit]
O=C(CCl)c1ccc(Cc2ncc(C(F)(F)F)cc2Cl)s1 | – | inconclusive: 22.4 µM [inhibitor, single point]
COc1ccc(CNC(=O)Nc2ccc3c(c2)N(C)C(=O)c2ccccc2S3)cc1 | inactive: -31.8% | –
COc1cccc(OCC(=O)NC2CCCCCC2)c1 | inconclusive: -126% [inhibitor] [at 12.7 µM] | –
COc1ccc(NC(=O)/C(C#N)=C\c2cc(OC)c(OCc3ccc(C(=O)O)cc3)cc2Br)cc1 | – | inconclusive: 89.1 µM [inhibitor, single point]
CCNS(=O)(=O)c1ccc(CCC(=O)N2CCN(c3ccccc3)CC2)cc1 | – | inconclusive: 89.1 µM [inhibitor, partial curve, poor fit]
COc1cc(C(=O)Nc2cccc(-c3nc4cc(C)cc(C)c4o3)c2)cc(OC)c1OC | inactive: 2% [at 102 µM] | –

Structure (SMILES) | activity, negative = inhibition | Potency
CCOC(=O)c1c(-c2ccc(C)o2)csc1NC(=O)CSc1ncn[nH]1 | – | inconclusive: 6.31 µM [inhibitor, single point]
COc1cc(NC(=S)NCc2ccc(S(N)(=O)=O)cc2)cc(OC)c1 | – | active: 17.8 µM
Cc1ccc2nc(SC(C)C(=O)Nc3cccc([N+](=O)[O-])c3)[nH]c2c1 (stereo not drawn) | – | inconclusive: 28.2 µM [inhibitor, single point]
Nn1c(SC/C=C/c2ccccc2)nnc1-c1ccncc1 | – | active: 14.1 µM
CN(c1ccccc1)S(=O)(=O)c1cccc(NC(=O)c2ccncc2)c1 | – | inconclusive: 89.1 µM [inhibitor, partial curve, poor fit]
CC(=C/c1ccccc1)/C=N/N1CCN(Cc2ccc(C)cc2)CC1 | – | inconclusive: 31.6 µM [inhibitor, single point]
CC(C)CN(C[C@@H](O)[C@H](Cc1ccccc1)NC(=O)O[C@H]1CO[C@H]2OCC[C@H]21)S(=O)(=O)c1ccc(N)cc1 | inactive: 7.64% [at 12.7 µM] | –
CCOc1ccc(N(C)Cc2cc(=O)oc3ccc(OCC)cc23)cc1 | – | active: 10 µM
O=C(Nc1nnc(-c2ccc(F)cc2)o1)C1CCCN1S(=O)(=O)c1cccs1 (stereo not drawn) | – | inconclusive: 100 µM [inhibitor, partial curve, poor fit]
CC(=O)c1cccc(NC(=O)CN2C=NS(=O)(=O)c3ccc(C)cc32)c1 | inactive: -0.692% | –
CN(Cc1ccco1)c1ncncc1-c1ccccc1C(F)(F)F | inactive: 5.51% [at 0.501 µM] | –
O=S(=O)(Nc1ccc2cn[nH]c2c1)c1ccc(C(F)(F)F)cc1 | inactive: 17.1% [at 2.33 µM] | –
CCOc1ccc(CNC(=O)C2CCN(S(=O)(=O)N3CCC(C)CC3)CC2)cc1OC | inactive: -1.55% | –
CCN1C(=O)c2ccc(-c3nc4ccccc4c(=O)o3)cc2C1=O | – | inconclusive: 39.8 µM [inhibitor, partial curve]
CC(C)CN1CCN(Cc2cccn2-c2ccccn2)CC1CCO (stereo not drawn) | – | inconclusive: 39.8 µM [inhibitor, single point]
Cc1cccc(C2C3=C(Nc4[nH]n(-c5ccccc5)c(=O)c42)c2ccccc2C3=O)c1 (stereo not drawn) | – | active: 20 µM
CCn1c(=O)c2cc(C(=O)Nc3cc(OC)c(OC)c(OC)c3)sc2c2ccccc21 | – | inconclusive: 22.4 µM [inhibitor, partial curve, poor fit]
Nc1nonc1C(=O)OCC(=O)N1CCCCC1 | inactive: -0.638% [at 102 µM] | –
O=C(c1cccc(S(=O)(=O)N2CCOCC2)c1)N(CCc1ccccc1)Cc1ccccc1 | – | inconclusive: 10 µM [inhibitor, partial curve, poor fit]
Cn1cccc1Cc1nnc(SCC(=O)N2CCCCCC2)n1CCc1ccccc1 | – | active: 50.1 µM
CCCN1CCC(=NNc2ccc(S(N)(=O)=O)cc2[N+](=O)[O-])CC1 | – | active: 14.1 µM
COc1ccc(NS(=O)(=O)c2ccc(NC(=S)NC(=O)/C=C/c3ccccc3)cc2)nn1 | – | inconclusive: 89.1 µM [inhibitor, partial curve, poor fit]
